Test results reported in PubChem BioAssay AID485281 (National Center for Advancing Translational Sciences (NCATS), 2010).
The campaign covered roughly 350,000 compounds. About 260 (0.074%) were called active. Inconclusive means that the source gave no clear call. Such entries were picked first, then a sample of the others. The call rests on the fitted dose curve; in most records, active means well fitted inhibition curve with a large enough effect; inconclusive means small, poorly fitted or top-dose-only effect; inactive means no such curve, though single readings can be large or run the other way. Potencies of inconclusive entries are doubtful fits and often do not repeat.

Biological target: Ferritin light chain (Equus caballus) (UniProt P02791)
Assay: qHTS Assay for Identification of Novel General Anesthetics; further: nearly all actives have a fitted effect of over 20% in size
Details: apoferritin/1-aminoanthracene competitive binding, fluorescence; activity change, negative = displacement: at 77.5 µM (top of the series)
Method in brief: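 10 uM apoferritin + 50% sat. 1-AMA, PBS; cpd 10 min RT; Ex380/Em535 endpoint; normalized to free probe vs complex; 4-param Hill fit; propofol titration as pos. ctrl.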
On the % scale 0 is the no-effect control and ±100 the full control effect; potency means the concentration at half of the fitted maximal effect; tags describe the fitted curve by direction and shape.

Chain of UniProt P02791 (P02791 whole entry, looked up): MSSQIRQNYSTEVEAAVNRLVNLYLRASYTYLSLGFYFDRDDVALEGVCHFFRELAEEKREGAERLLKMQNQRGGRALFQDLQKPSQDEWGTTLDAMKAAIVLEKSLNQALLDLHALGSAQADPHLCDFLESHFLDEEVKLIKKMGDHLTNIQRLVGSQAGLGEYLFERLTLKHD

| Compound | Potency | activity change, negative = displacement |
| --- | --- | --- |
| CC(SC#N)C(=O)C12CC3CC(CC(C3)C1)C2 (stereo not drawn) | inconclusive: 28.2 µM [inhibitor, partial curve] |  |
| CNC(=O)C(C#N)(Cc1cc(C(C)=O)ccc1OC)Cc1cc(C(C)=O)ccc1OC | inconclusive: 44.7 µM [inhibitor, partial curve] |  |
| COc1ccc(/C=N/Nc2cc(C)nc3c(C)cccc23)cc1 |  | inactive: 140% |
| CCCCc1ccc(NC(=O)NCc2ccccn2)cc1 | inconclusive: 25.1 µM [inhibitor, partial curve] |  |
| COc1cccc(NS(=O)(=O)c2ccc3[nH]cc(C(=O)NCCC(C)C)c(=O)c3c2)c1 | inconclusive: 31.6 µM [inhibitor, partial curve] |  |
| CCCCC(=O)N1CCCC(c2nc3c(nnn3Cc3cc(C)ccc3C)c(=O)[nH]2)C1 (stereo not drawn) | inconclusive: 20 µM [inhibitor, partial curve] |  |
| CC1(C)CC(=O)C(C(=O)/C=C/NCCc2ccccc2)C(=O)C1 | inconclusive: 35.5 µM [inhibitor, partial curve] |  |
| Nc1nnc(-c2ccc(Cl)c(Cl)c2)s1 | inconclusive: 25.1 µM [inhibitor, partial curve] |  |
| COc1ccccc1NC(=O)Cn1nc(-c2ccc(C)cc2)c2c(c1=O)CCCC2 | inconclusive: 14.1 µM [inhibitor, partial curve] |  |
| COc1ccc(/C=N/NC(=O)c2ccncc2)cc1CN1CCCc2ccccc21 | inconclusive: 31.6 µM [inhibitor, single point] |  |
| O=C1CSC(=S)N1c1cccc(Br)c1 | inconclusive: 28.2 µM [inhibitor, single point] |  |
| O=C(/C=C/c1ccc(OCCCF)cc1)N1CCN(Cc2ccccc2)CC1 | inconclusive: 25.1 µM [inhibitor, single point] |  |
| CC(C)CCn1nnnc1C(c1ccc(N(C)C)cc1)N1CCN(C(=O)c2ccco2)CC1 (stereo not drawn) | inconclusive: 50.1 µM [inhibitor, single point] |  |
| O=C(NCCC1=CCCCC1)c1ccc(Cl)cc1 | inconclusive: 25.1 µM [inhibitor, partial curve] |  |
| COc1cc(C(=S)N2CCC(C)CC2)ccc1O | inconclusive: 17.8 µM [inhibitor, partial curve] |  |
| NCC(O)COCCC12CC3CC(CC(C3)C1)C2 (stereo not drawn) | inconclusive: 14.1 µM [inhibitor, partial curve] |  |
| Cc1ccc(NC(=O)Nc2ccc3c(c2)N(C)C(=O)CS3)cc1C | inconclusive: 17.8 µM [inhibitor, partial curve] |  |
| O=C(c1ccco1)N(Cc1cc2ccccc2[nH]c1=O)CC1CCCO1 (stereo not drawn) |  | inactive: -1.11% |
| O=[N+]([O-])c1cccc2c(N3CCCC3)ccnc12 |  | inactive: -16.3% |
| CCC(C)n1c(SC(C)C#N)nc2ccccc2c1=O (stereo not drawn) | inconclusive: 50.1 µM [inhibitor, single point] |  |
| NC(=O)CC(NC(=O)Cc1ccc(Br)cc1)c1ccc(NCCc2ccccc2F)c([N+](=O)[O-])c1 (stereo not drawn) |  | inactive: -3.48% |
| Brc1ccc(-c2nc3ccccc3s2)s1 |  | inactive: -9.71% |
| COc1cc(OC)cc(C(=O)N2CCN=C2SCc2cccnc2)c1 | inconclusive: 35.5 µM [inhibitor, partial curve] |  |

| Compound | Potency | activity change, negative = displacement |
| --- | --- | --- |
| Cc1nn(CCCC(=O)NCc2ccccc2)c(=O)c2cc3sccc3n12 |  | inactive: -7.07% |
| COC(=O)C1=CN(C)C=C(C(=O)OC)C1c1ccsc1 |  | inactive: 320% |
| CC(NC(=O)CCC(=O)c1ccc(F)cc1)C1CC2CCC1C2 (stereo not drawn) | inconclusive: 28.2 µM [inhibitor, partial curve] |  |
| O=C(NC(=S)Nc1ccc(Cl)c(C(=O)O)c1)c1ccc(OCc2ccccc2)cc1 | inconclusive: 28.2 µM [inhibitor, partial curve] |  |
| CC(C)CC(NC(=O)OC(C)(C)C)c1cn([C@@H](Cc2ccc(O)cc2)C(=O)N2CCN(C(=O)OC(C)(C)C)CC2)nn1 (stereo partly drawn) | inconclusive: 3.98 µM [inhibitor, full curve] |  |
| CCOc1ccc(S(=O)(=O)NCCc2csc3nc(-c4ccc(F)cc4)nn23)cc1 |  | inactive: -4.19% |
| CC1CCC(NC(=O)c2ccc(CS(=O)(=O)c3cccc(C(F)(F)F)c3)o2)CC1 (stereo not drawn) | inconclusive: 15.8 µM [inhibitor, partial curve] |  |
| CCOC(=O)c1c(NC(=O)CN2CCOCC2)sc2c1CCCC2 | inconclusive: 50.1 µM [inhibitor, single point] |  |
| COc1ccccc1-n1cc(C(=O)NCC(=O)N2CCN(c3ccccc3)CC2)c2ccccc2c1=O |  | inactive: -18.6% |
| Cc1[nH]c2ccccc2c1SCCNC(=O)c1ccc(Br)o1 |  | inactive: -10.7% |
| Cc1cccc(NC(=O)CSc2nncn2-c2ccccn2)c1 | inconclusive: 17.8 µM [inhibitor, partial curve, poor fit] |  |
| COc1ccc(-c2cc(C(=O)Nc3cccc(O)c3)on2)cc1OC | inconclusive: 22.4 µM [inhibitor, partial curve] |  |
| C/C(Cc1ccccc1)=N\NC(=O)CNC(=O)c1ccccc1O | inconclusive: 28.2 µM [inhibitor, single point] |  |
| Cc1cccc(CSCc2ccc(C(=O)NCCc3ccccc3)o2)c1 |  | inactive: -8.69% |
| Cc1ccc(/C([O-])=C(/C(=S)Nc2ccc(SC(F)F)cc2)[n+]2ccccc2)cc1[N+](=O)[O-] | inconclusive: 25.1 µM [inhibitor, partial curve] |  |
| Oc1c(C=Nc2cccc3nsnc23)ccc2ccccc12 | inconclusive: 35.5 µM [inhibitor, single point] |  |
| CCc1cccc(C)c1NS(=O)(=O)Cc1ccccc1 | inconclusive: 14.1 µM [inhibitor, partial curve] |  |
| Cc1ccccc1Oc1ccccc1N | inconclusive: 14.1 µM [inhibitor, partial curve] |  |
| COc1ccc(NC(=O)Cn2ncc(Cl)c(Cl)c2=O)cc1S(=O)(=O)N1CCOCC1 |  | inactive: -6.23% |
| COc1ccc2c(c1OC)C(=O)N1C2SC[C@H]1C(=O)NCCC(C)C (stereo partly drawn) | inconclusive: 56.2 µM [inhibitor, single point] |  |
| Cn1cc(C(=O)NC2C3CC4CC(C3)CC2C4)cn1 (stereo not drawn) | inconclusive: 35.5 µM [inhibitor, single point] |  |
| CCCN(CCC)C(=O)CSc1nc2n[nH]c(C)c2c(=N)n1-c1ccc(OC)cc1 | inconclusive: 12.6 µM [inhibitor, partial curve] |  |
| Cc1nn(Cc2ccc(Cl)cc2Cl)c(C)c1NC(=O)NC12CC3CC(CC(C3)C1)C2 | inconclusive: 10 µM [inhibitor, partial curve] |  |

| Compound | Potency | activity change, negative = displacement |
| --- | --- | --- |
| CCc1ccc(NC(=O)Nc2nnc(N(C)C3CCCCC3)s2)cc1 | inconclusive: 3.55 µM [inhibitor, full curve, poor fit] |  |
| CCN1C(=O)CC(N2CCN(c3ccc(C(=O)c4ccccc4)cc3)CC2)C1=O (stereo not drawn) | inconclusive: 35.5 µM [inhibitor, partial curve] |  |
| COc1cc(C)ccc1OCc1cc(C(=O)N2C[C@H]3CC[C@H]2C3)no1 |  | inactive: 0.699% |
| O=S(=O)(Nc1ccc(F)cc1F)c1ccc(-n2cccn2)cc1 |  | inactive: -2.04% |
| Cc1oc(-c2ccccc2F)nc1CS(=O)(=O)CC(=O)NC1CCCC(C)C1C (stereo not drawn) | inconclusive: 7.94 µM [inhibitor, partial curve] |  |
| Cc1onc(COc2ccccc2O)c1Br | inconclusive: 31.6 µM [inhibitor, partial curve] |  |
| CCOC(=O)Cn1cnc2scc(-c3ccccc3)c2c1=O | inconclusive: 20 µM [inhibitor, partial curve] |  |
| CN(CCCC1CCCC1)C(=O)CC1C(=O)NCCN1Cc1cccc(F)c1F (stereo not drawn) | inconclusive: 39.8 µM [inhibitor, partial curve] |  |
| C=CCNC(=S)NNc1nc(N2CCCC2)nc(N2CCCC2)n1 |  | inactive: -11.7% |
| Cc1ccsc1/C=N/N=C/c1sccc1C | inconclusive: 31.6 µM [inhibitor, single point] |  |
| Cc1ccc(NNS(=O)(=O)c2ccc(C)cc2)cc1 | inconclusive: 22.4 µM [inhibitor, partial curve] |  |
| Cc1cn(C(=O)c2ccccc2)c(=S)n1-c1ccc(Cl)cc1 | inconclusive: 56.2 µM [inhibitor, single point] |  |
| Cc1ccnc(NC(=O)CCNC(=O)c2ccc(Cl)cc2)c1 |  | inactive: -1.64% |
| CCOC(=O)c1sc2nc(SCC(=O)N(CC)CC)n(CCCN3CCCC3=O)c(=O)c2c1C | inconclusive: 14.1 µM [inhibitor, partial curve] |  |
| Cn1c(SCc2c(F)cccc2Cl)nnc1-c1cnccn1 | inconclusive: 35.5 µM [inhibitor, partial curve] |  |
| CCCOC(=O)CSc1nnc(-c2ccccc2Cl)o1 | inconclusive: 56.2 µM [inhibitor, single point] |  |
| CCc1nnc(NC(=O)CSc2nnc(C3CCCCC3)n2-c2ccccc2)s1 | inconclusive: 35.5 µM [inhibitor, partial curve] |  |
| COc1ccc(CNC(=O)COc2cc3c(c4oc(=O)cc(C)c24)CCC(C)(C)O3)cc1 | inconclusive: 11.2 µM [inhibitor, partial curve, poor fit] |  |
| Clc1ccc(-c2noc(CSc3nnc(Cc4cccs4)n3-c3ccccc3)n2)cc1 |  | inactive: -3.74% |
| CN(CCCOc1ccccc1F)Cc1ccccc1 | inconclusive: 56.2 µM [inhibitor, single point] |  |
| CCCCOc1ccc(S(N)(=O)=O)cc1 |  | inactive: -17.6% |
| CO[C@H]1C=CO[C@@]2(C)Oc3c(C)c(O)c4c(O)c(c5c(nc6cc(C)ccn65)c4c3C2=O)NC(=O)C(C)=CC=C[C@H](C)[C@H](O)[C@@H](C)[C@@H](O)[C@@H](C)[C@H](OC(C)=O)[C@@H]1C | inconclusive: 10 µM [inhibitor, partial curve] |  |
